# The campaign covered roughly 50,000 compounds. About 800 (1.6%) showed an effect of 50% or more. The list shows a part of the results.
# Target: Bcl-2-like protein 10 (Homo sapiens) (UniProt Q9HD36)
# Test: TR3 peptide-Bcl-B binding displacers, biochemical primary FP assay, phenotype converters (AID 1240);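 also: 0% = Bcl-B with tracer peptide and DMSO and 100% = tracer peptide lacking Bcl-B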
# Conditions: GST-Bcl-B / FITC-TR3 peptide fluorescence polarization; stronger effect = higher value; compound at 3.75 mg/L
# Sequence of UniProt Q9HD36 (Q9HD36 whole entry, looked up): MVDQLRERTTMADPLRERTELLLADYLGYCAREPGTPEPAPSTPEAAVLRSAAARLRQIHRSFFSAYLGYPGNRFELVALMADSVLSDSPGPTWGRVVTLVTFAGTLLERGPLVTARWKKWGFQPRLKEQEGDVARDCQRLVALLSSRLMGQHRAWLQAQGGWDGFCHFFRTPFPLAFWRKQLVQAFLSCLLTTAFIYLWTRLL
row,Compound,displacement
1,Cc1cc(C)c(C#N)c(SCC(=O)N2CCOCC2)n1,7.3%
2,Cc1ccc2[nH]c3c(c2c1)CCCC3NC(N)=O (centres undefined),13.4%
3,Cc1sc2ncnc(Nc3ccncc3)c2c1C,-13.3%
4,Nc1nnc(CCC(=O)c2ccccc2)s1,3.5%
5,O=C(NCc1ccccc1)c1ccccc1[N+](=O)[O-],9.7%
6,C/C=N/N=C1/NC(=O)C(CC(=O)Nc2ccc(Cl)c(Cl)c2)S1 (centres undefined),-3.9%
7,CC(C)(C)N1C(=O)NC(=O)C(=Cc2ccc(Br)s2)C1=O,11.2%
8,COC(=O)C1=C(C)NC2=C(C(=O)c3ccccc32)C1c1ccc(-c2ccc(Cl)cc2)o1 (centres undefined),9.2%
9,Cc1ccc(-c2cc(C(=O)NC(C)C)c3ccccc3n2)s1,-7.7%
10,COc1cc(C(=O)Nc2ccc([N+](=O)[O-])cc2Cl)cc(OC)c1OC,2.3%
11,CCOc1ccc(/C=N\NC(=O)c2cncc(Br)c2)cc1,26.6%
12,CCOC(=O)C(C(=O)OCC)=C1Sc2ccccc2N1C,13.4%
13,O=C(/C=C/c1ccccc1)N1CCN(CCN2C(=O)C3C4C=CC(C4)C3C2=O)CC1 (centres undefined),-3.2%
14,CC(=O)NS(=O)(=O)c1ccc(NC(=O)Nc2ccc(Cl)cc2)cc1,-8.7%
15,C=CCNC(=O)COc1ccc(C)cc1Br,-1.7%
16,CCOc1ccccc1NC(=O)COc1ccccc1,11.5%
17,COc1cc(/C=N/NC(=O)CCC2C(=O)NN=C2C)ccc1O (centres undefined),-11.5%
18,CCOc1cc(C(=O)Nc2ncccc2Cl)cc(OCC)c1OCC,-0.9%
19,C=C(C)Cn1c(-c2ccccc2Br)n[nH]c1=S,-2.4%
20,CCOC(=O)c1ccccc1NC(=O)CN(c1ccc(OC)cc1)S(=O)(=O)c1ccccc1,1.1%
21,COc1ccc(N(CC(=O)Nc2ccc(Br)cc2)S(C)(=O)=O)c(OC)c1,1.2%
22,CC1(C)CC(CCNCc2ccccc2)(Cc2ccccc2)CCO1 (centres undefined),8.4%

row,Compound,displacement
1,O=C(Nc1ccc(-c2nc3ncccc3o2)cc1)c1cc2ccccc2oc1=O,-1%
2,CCOC(=O)C(CCCOc1cc(C)ccc1C)C(=O)OCC,-8%
3,COc1cccc(OC)c1C(=O)Nc1cccc(C(=O)c2ccccc2)c1,10.9%
4,CCOC(=O)c1sc(NC(=O)CCC2CCCC2)c(C(N)=O)c1C,-3%
5,C=CCN1C(=O)/C(=C\c2ccc(-c3ccc(OC)cc3[N+](=O)[O-])o2)C(=O)NC1=S,18.3%
6,Cc1ccc(C(C)C)c(OCC(=O)Nc2ncc(S(=O)(=O)c3ccc([N+](=O)[O-])cc3)s2)c1,-1%
7,COc1ccccc1OCCCCN1CCCC1,16.9%
8,O=S(=O)(c1ccc(F)cc1)n1nnc2ccccc21,2.3%
9,Cc1ccc(OCc2nc(-c3cccnc3)no2)c(Br)c1,10.7%
10,CCOC(=O)C(C)Oc1ccc2c(C)c(C)c(=O)oc2c1 (centres undefined),10.1%
11,CCN1C(=O)/C(=C\c2cn(Cc3ccc(F)cc3)c3ccccc23)SC1=S,5.1%
12,CC(=O)CC(=O)Nc1c(Cl)cccc1Cl,4.1%
13,Cc1cccc(CC(C(=O)O)C(C)C(=O)O)c1 (centres undefined),4.5%
14,O=C(Nc1ccccc1OCC(F)(F)C(F)F)c1ccc(Cl)c([N+](=O)[O-])c1,-15.3%
15,COc1ccc(CNC(=O)C(=O)NCc2ccc(C)cc2)cc1,-15%
16,Cc1cccc(OCc2nc3cc(Cl)ccc3c(=O)o2)c1,-9.6%
17,O=C1C(=O)N(c2cccc([N+](=O)[O-])c2)C(c2ccc(F)cc2)/C1=C(/O)c1ccccc1 (centres undefined),2.1%
18,S=C(Nc1ccc(Cl)cc1Cl)NC1CCCC1,0.3%
19,COc1ccc(N(CC(=O)Nc2ccc(Cl)cc2)S(=O)(=O)c2ccccc2)cc1Cl,0.3%
20,COC(C(=O)N/N=C/c1cn(-c2ccccc2)nc1-c1ccccc1)c1ccccc1 (centres undefined),-7.1%
21,COc1ccc(C(=O)N2CCN(Cc3ccc(Cl)cc3)CC2)cc1OC,3.8%
22,Cc1ccc(C(=O)Nc2ccc(Cc3ccncc3)cc2)cc1C,23.6%

row,Compound,displacement
1,O=C(c1ccc(Cl)cc1)N1CCN(c2ccc(C(F)(F)F)cc2[N+](=O)[O-])CC1,-2.7%
2,O=C(Nc1ccc(Cl)c(Cl)c1)c1ccc2c(c1)OCCO2,10.2%
3,O=C(/C=C(\Nc1ccccc1)c1ccccc1)c1cccc2ccccc12,9.1%
4,CCOc1cccc(C(=O)Nc2sc(C)cc2C(=O)OC)c1,18.7%
5,CCCc1cc(C(=O)OC)c(NC(=O)c2cccc(OC(C)C)c2)s1,-3.4%
6,O=C(/C=C/c1ccccc1)Nc1ccc(-c2nc3ccccc3o2)c(O)c1,127%
7,COc1ccc(C(=O)NCCOc2ccccc2OC)cc1OC,-8.9%
8,CC1=NN(C(=O)c2ccncc2)C(O)(C(F)(F)F)C1 (centres undefined),-6.3%
9,CC(=O)NC1=NC(=O)/C(=C\c2ccc(-c3ccccc3C(=O)O)o2)S1,14.5%
10,COc1ccc(C)cc1NC(=O)c1ccccc1I,-9.1%
11,NS(=O)(=O)c1ccc(CNS(=O)(=O)c2ccc([N+](=O)[O-])cc2)cc1,-5.3%
12,O=C(Nc1cccc(-c2cn3ccccc3n2)c1)c1ccccc1Cl,8%
13,O=C(Nc1ccc(Cl)c(-c2nc3ccccc3o2)c1)c1cccc(F)c1,-5.1%
14,CC(=O)Oc1ccc(N2C(=O)c3ccc(C(=O)c4cccc([N+](=O)[O-])c4)cc3C2=O)cc1,2%
15,CS(=O)(=O)N1CCN(CC(O)Cn2c3ccccc3c3ccccc32)CC1 (centres undefined),12.7%
16,Cc1ccc(C(=O)N/C(=C/c2ccc(Br)cc2)c2nc3ccccc3[nH]2)cc1,-6.2%
17,Cc1cc(C)c(N2C(=O)c3ccc(-c4nc5ccccc5c(=O)o4)cc3C2=O)c(C)c1,6.5%
18,Cc1ccc(-c2noc(-c3ccc([N+](=O)[O-])cc3)n2)cc1,6.2%
19,O=C(Nc1ccc(Nc2ccccc2)cc1)c1ccccc1,10.1%
20,COCC(C)NCc1cccc(Oc2ccccc2)c1 (centres undefined),-0.2%
21,O=C(COC(=O)c1cccc(C#Cc2ccccc2)c1)c1ccc(Br)cc1,6.3%
22,Cc1occc1C(=O)NC1CCCCCC1,-13.4%

row,Compound,displacement
1,CCC(CC)N1CCN(C(=O)c2cc(OC)c(OC)c(OC)c2)CC1,-8.7%
2,COc1ccc(/C=C/C(=O)OCc2ccc([N+](=O)[O-])cc2)cc1S(=O)(=O)NCC1CCCO1 (centres undefined),-11%
3,CC(=O)NN1C(=O)/C(=C\c2ccc(F)cc2)SC1=S,22.8%
4,CCCC(=O)Nc1nnc(Cc2nnc(NC(=O)CCC)s2)s1,16.4%
5,O=C(NCCO)/C(=C/c1ccc(Br)cc1)NC(=O)c1cccs1,-8.8%
6,C#Cc1cccc(NC(=O)c2ccc(Oc3ccc(NC(=O)c4cccc(C#C)c4)cc3)cc2)c1,1%
7,Nc1ccc(-c2ccc(N3C(=O)c4cccc5c(C(=O)c6ccccc6)ccc(c45)C3=O)cc2)cc1,-12.1%
8,COc1ccc(S(=O)(=O)N(CCc2ccccc2)CC(=O)Nc2cc(Cl)ccc2OC)cc1,-14.8%
9,CC(=O)N1CCN(c2ccc(NC(=O)/C=C/c3ccccc3)cc2)CC1,11.8%
10,COc1ccc(CNC(=O)c2ccc(Cl)c(Cl)c2)cc1,3.7%
11,O=C1NC(=Nc2cccnc2)S/C1=C\c1cccc(F)c1,146%
12,COC(=O)CN(C#N)c1nc(NC(C)C)nc(NC(C)C)n1,7%
13,Cc1cccc(/C=N\NC(=O)COc2ccc(-c3ccccc3)cc2)c1O,3.7%
14,COc1ccc(COC(=O)C2=C(C)NC3=C(C(=O)CC(C)(C)C3)C2c2ccsc2)cc1 (centres undefined),-7.3%
15,COc1ccc(N2C(=O)c3ccccc3NC2c2ccccc2)cc1 (centres undefined),13.7%
16,CCN(CC)CCCOC(=O)c1ccc(O)c(OC)c1,11.5%
17,CCc1ccccc1N(CC(=O)Nc1ccc(OC)cc1OC)S(C)(=O)=O,-6.2%
18,Cc1c(Cl)cccc1NC(=O)C1CCCCC1C(=O)O (centres undefined),-4.8%
19,O=[N+]([O-])c1ccc(CSc2nnnn2-c2ccccc2)cc1,-7.6%
20,O=C(N/N=C/c1cc(Br)cc(I)c1O)c1cccc([N+](=O)[O-])c1,38.9%
21,O=[N+]([O-])c1ccc(S(=O)(=O)N/N=C/c2ccco2)cc1,2.2%
22,COc1ccc(C2NN=C(Cc3ccccc3)S2)cc1OC (centres undefined),0.7%

row,Compound,displacement
1,COc1ccc(NS(=O)(=O)c2cc(-c3nnnn3C)ccc2OC)cc1,5.9%
2,O=C1C(Cl)=C(NCCc2ccccc2)C(=O)N1c1ccc(Br)cc1,29.4%
3,Cc1ccc(S(=O)(=O)N2CCCC2C(=O)Nc2nccs2)cc1 (centres undefined),-7%
4,O=C(NC(=S)Nc1cc(Cl)c(Cl)cc1Cl)c1ccco1,8.2%
5,O=S(=O)(c1ccc(Br)cc1)n1ccc2ccccc21,17.9%
6,O=C1C(Cl)=C(Nc2ccc3c(c2)OCO3)C(=O)N1c1ccccc1,-3.2%
7,CC(NC(=O)C12CC3(C)CC(C)(CC(C)(C3)C1)C2)C(=O)O (centres undefined),3.5%
8,Cc1ccccc1-c1n[nH]c(=S)n1C1CCCCC1,27.4%
9,Cc1c(OCC(=O)OCc2ccccc2)ccc2c3c(c(=O)oc12)CCC3,11%
10,COc1cccc(N2C(=O)C(=O)/C(=C(\O)c3ccccc3)C2c2ccccc2OC)c1 (centres undefined),-4.1%
11,COC(=O)c1c(C)oc2cc(Br)c(OC(C)C(=O)OC)cc12 (centres undefined),7.2%
12,O=C(c1nn2c(c1Cl)NC(c1cccs1)CC2C(F)(F)F)N1CCOCC1 (centres undefined),4.8%
13,O=C1CN(S(=O)(=O)c2ccccc2)CCN1S(=O)(=O)c1ccccc1,15.5%
14,C=CCOc1c(Cl)cc(CNn2cnnc2)cc1OC,-3.1%
15,CC(=O)c1ccc(NC(=O)c2cc3nc(-c4ccc([N+](=O)[O-])cc4)cc(C(F)(F)F)n3n2)cc1,2.3%
16,COc1ccccc1/C=C/C(=O)c1c(-c2ccccc2)c2cc(C)ccc2[nH]c1=O,-18.9%
17,O=C(NCC1(c2ccccc2)CCOCC1)c1ccco1,-3.7%
18,CCOC(=O)Nc1ccc2c(c1)N(C(=O)N1CCOCC1)c1ccccc1CC2,11.6%
19,CCOc1cccc(C(=O)Nc2cc(NC(=O)c3cccc(OCC)c3)cc(C(=O)O)c2)c1,11%
20,Cc1ccc(N2CC(C(=O)OCc3ccc([N+](=O)[O-])cc3)CC2=O)cc1 (centres undefined),-1%
21,Cc1cc(NC(=O)c2cccc([N+](=O)[O-])c2)ccc1-c1cc2ccccc2oc1=O,3.9%

# Source: PubChem BioAssay AID1240 (Sanford-Burnham Center for Chemical Genomics, 2008)
